These results are taken from the supplement of paper PMC11417369.

The other results are listed elsewhere or left out.

This test has as its system PfAP2-HC AP2 domain (GST-tagged). The experiment in a line: gcPBM binding intensity (ln(normalized median fluorescence intensity)); higher = stronger DNA binding. Put shortly: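 Plasmodium falciparum DNA-binding domains carrying a GST tag were expressed in E. coli and applied for 1 h, at about 25 μg on average, to an Agilent 4 × 180k array. The array held primer-extended double-stranded 36-bp intergenic genomic probes together with negative controls, and binding took place in 1× PBS with 1% milk, 0.2 mg/ml BSA, 0.5% salmon testes DNA and 0.03% Triton X-100. An Alexa488 anti-GST antibody detected bound protein, and the array was scanned at 488 nm. Binding intensity is taken as the highest Masliner-normalised natural-log median intensity across replicate spots of either probe orientation.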
Consider “AGTATACATATATATACACACATATATATATATATA [CACACA_site300]”, for which the “gcPBM binding intensity (ln)” value amounted to 9.8.
Take “TGTGTATTTATAAATACACACCAAATGTTAATATAT [CACACA_site6904]”: the “gcPBM binding intensity (ln)” value turned out to be 9.68.
The figure for “GTAAAATGATATAAATGTACATAATATATATATGTC [XGTACX_site4049]” is 9.83; for “AATTTTTTTTTTAGACGTACAAGAAAAAACAAAAAA [XGTACX_site4990]” it is 9.49.
Then “AACTATAAAAATTTTACACACTGTTTTTAAATAATG [CACACA_site5928]”, with 9.75.
“TATATGAAGTACACAATACACACTAATTATATATAA [CACACA_site2608]”: the “gcPBM binding intensity (ln)” value was 10.1.
Then “TTATGCCTTTAATATACACACTAATATTTTTTTGGC [CACACA_site5171]”, with 9.63.
Turning to “TATGAAATTATAATTACACACAGGAAAATAAAATGT [CACACA_site1517]”, the “gcPBM binding intensity (ln)” value is 9.89.
Consider “ATATAATAATAAGGCACACAAATTAAAATATAAAAA [CACACA_site3710]”, for which the “gcPBM binding intensity (ln)” value came to 9.97.
Turning to “TTATGTTCTTTAAAACCACACACCCCCCAACCCCCC [CACACA_site8742]”, the “gcPBM binding intensity (ln)” value came to 9.67.
Turning to “TATATATGCATATACATACACACATAACACATACGT [CACACA_site3833]”, the “gcPBM binding intensity (ln)” value stood at 10.1.
The figure for “AATGTTTTATTTTGAAGTACATTTAAGAATTTTTTA [XGTACX_site7814]” is 9.34.
Then “ATAAAAATTGATTATACACACGCGCCCAGACAACAA [CACACA_site5870]”, with 10.2.
The figure for “ATATAGATGCATAATACACACATCAGATAATTAACC [CACACA_site6871]” is 9.96.
As to “ACAAGGTTTACGGGTAGTACAAATTTTTGAACATCT [XGTACX_site4739]”, the “gcPBM binding intensity (ln)” value is 9.5.
Consider “TTTTTTTTTTTTTTTTGTACTCATATCTACTATCAT [XGTACX_site274]”, for which the “gcPBM binding intensity (ln)” value is 9.27.
For the sequence “AGCCAAACCTTAAATTTAGCAATAAGTTTACAGGTC [CACACA_negctrl_site360]”, the “gcPBM binding intensity (ln)” value amounted to 9.5.
Then “ATTAAAAGTTTATACAAATAAAAAACAAAACAAAAA [CACACA_negctrl_site1030]”, with 9.8.
“CATTATGTCGTAAATACACACATACATATACATACA [CACACA_site8383]”: the “gcPBM binding intensity (ln)” value turned out to be 9.87.
Then TTTTGACCATATCTGTTGCACTTTTGTGCTATTCGA, with 9.62; and “AAGGATCACAGACAAACACACATATATATATATATA [CACACA_site4469]”, with 9.86; and “AAATAATTTGTTGACACACACACACCCATACAGATA [CACACA_site5291]”, with 10.4.
As to “TAAATTTTTTCCTCCTGTACTTATTATATTTTTTTG [XGTACX_site1572]”, the “gcPBM binding intensity (ln)” value is 9.73.
The figure for “ATTAATTCGTTTTGTACACACATAATGAGTAATTTA [CACACA_site7118]” is 9.74; for “ATATAATATTTATATGCACACTTTTCTATATATAAG [CACACA_site6100]” it is 9.66; for “TAAAATATTATTTATTTACACACCAATCTTCTTTTC [CACACA_site9320]” it is 9.71.
Then “TCGTATTTAAAATGTAGTACATAATTTGAAAAATAA [XGTACX_site5832]”, with 9.54; and “TAATGGTTATCACTAACATGCAGTAATATTATATAG [TGCATGCA_site176]”, with 9.58.
With “TTTTTTCTTTTTTTTTGTACATATAATATTTATGTT [XGTACX_site302]”, the “gcPBM binding intensity (ln)” value is 9.62.
Consider “AAAAGAAAAAAAAAAAAAAAAAAAATTAAAATATAA [CACACA_negctrl_site17]”, for which the “gcPBM binding intensity (ln)” value was determined as 9.17.
Then “ATATATATATGTATATGTACATATATATGGTAACTC [XGTACX_site681]”, with 9.9; and “AAAAAAAAAAAACACACACACAAATACAAATGGTAA [CACACA_site1720]”, with 10.9.
The figure for “AAGTTATTGATATATACACACAAATATAAATAATAT [CACACA_site6695]” is 9.89.
The figure for “AATACATATCAAAGCTGTACAAAGTAAATTTTACTT [XGTACX_site3525]” is 9.77; for “TTCAATAGGTATAATTGTACTTAATAATATATTGTT [XGTACX_site8363]” it is 9.58; for “CTTAGGTTAAAAGTGTGTACATAAAAACATATATAA [XGTACX_site2213]” it is 9.8.
With TACTATTATAAATATGTGCACTTCAATAATATACTA, the “gcPBM binding intensity (ln)” value is 9.62.
Then “ATAAGAAAAAGACACACACACAAAAAAAAAAAAAAA [CACACA_site2828]”, with 10.2; and “TAAATAAATTATTTTCGTACTTATTTATTTTAATTA [XGTACX_site283]”, with 9.56; and “TTAAAGTAGAGAAAATGTACATTTTATTAACACAAT [XGTACX_site6369]”, with 9.83.
The figure for “AAATAAAAAACAGTGGCACACATTATGTATCCACCT [CACACA_site3756]” is 9.79.
For the sequence “AAAAAAAAAATATACACACACATATAAATATAAATA [CACACA_site7574]”, the “gcPBM binding intensity (ln)” value came out at 10.2.
Take “ATACATTCAATGAAATGTACGTTTATTTACAGAAGA [XGTACX_site2999]”: the “gcPBM binding intensity (ln)” value stood at 9.6.
The figure for “TACAGATACAGATACACACACACACCGAAATAAATA [CACACA_site4865]” is 11; for “AAAATAAAAAGAAAAAGAAAAAAGGGGGGGTAGGGG [CACACA_negctrl_site1048]” it is 10.1.
Then “TAAATTCCTACATACGCATGTACATTAAAATTTTAA [TGCATGCA_site215]”, with 9.67; and “CTTTAAGTTATATGAAGTACAATTTAAAAAAATGAA [XGTACX_site358]”, with 9.48; and “ACATATAATATATAATGTACAAAATTGTTAACAATA [XGTACX_site3798]”, with 9.75.
As for “GAAAGGATATATATATATATATATATAATACATTTC [GTGCAC_negctrl_site677]”, the “gcPBM binding intensity (ln)” value was 9.63.
Then “TATATATACATACATACACACATATATATATATATT [CACACA_site4110]”, with 9.94; and “AATTAAAAAAAATACACACACACATACACATATATA [CACACA_site3298]”, with 10.9; and “CGTATTTATATAATTACACACCATATTATAATTATT [CACACA_site3760]”, with 9.75.
As to “CCAAAAAAAAAAAAAAGTACATAAAAACAAGAGAAT [XGTACX_site3037]”, the “gcPBM binding intensity (ln)” value came to 9.68.
Then “AAGAGAAAAATATATACACACACATAAATATATACA [CACACA_site8573]”, with 10.4.
The figure for “AAGGGGTAAAGAAAAACACACAAAAAATAAAAATAT [CACACA_site361]” is 9.76.
Then “GATGAAAATAGAAATACACACTAAAAAATAAAATTA [CACACA_site4764]”, with 9.77; and TGCATACTTTTGTAAGTGCATAAAATCGTACCATGC, with 9.33; and “GAAATAATTCGATGTGCATGTAACGTTTCCCCAAAG [TGCATGCA_site122]”, with 9.73.
For the sequence “TTATTTTTCCGGAATAGTACATAGACGCAGATATAA [XGTACX_site6356]”, the “gcPBM binding intensity (ln)” value came to 9.49.
The figure for “TAGAAGCATGGACACACACACATACATACCCATACA [CACACA_site4916]” is 11.2.
“CTCAATGTTTGCGATACATGCAAAAATTTTTAGAAT [TGCATGCA_site165]”: the “gcPBM binding intensity (ln)” value turned out to be 9.59.
The figure for “TACATTTCATTGTAATCATAAAAAATAAAGAAAAAA [XGTACX_negctrl_site542]” is 9.4; for “TCTATATCTTTCAACACACAAATTTTTTTTTCCATC [CACACA_site4238]” it is 9.72.
The figure for “AAAAAAAAAAAAAAAGTGCACAGTCGTTTTAAAAAA [GTGCAC_site9848]” is 9.49.
Consider “AAATCATTTAAGAACACACAAATATTTCCATTAAAT [CACACA_site6808]”, for which the “gcPBM binding intensity (ln)” value worked out at 9.67.
Then “ATTAACTATCATAACACACACAGTAGACATATTTTT [CACACA_site1822]”, with 10.1; and “AAGATAATATTTTCTTGTACGCATGCACATACAAAT [XGTACX_site7181]”, with 9.58; and “CTTTTCTCCCTCCATAGTACAATTATAAAAATATAT [XGTACX_site3090]”, with 9.54.
Then “ATGCAAAGTTTATAAAGTACATAAGTCAAAATAAAA [XGTACX_site1441]”, with 9.71; and “ATTATATACATATATATACACACGTAGTTTCTATTT [CACACA_site8697]”, with 9.9; and “TATAAATAAATAGATACACACATATATATAAATACA [CACACA_site155]”, with 10.1.
Regarding “ATATATATATATAAATGTACATTTTTCAATAGTTTT [XGTACX_site7449]”, the “gcPBM binding intensity (ln)” value was 9.91.
Turning to “TACTTTTTATTTTCTTGTACTTAATTGTCCAGATTT [XGTACX_site4334]”, the “gcPBM binding intensity (ln)” value worked out at 9.65.
Turning to “CTTATTATTATATGGGTGCTCATATTTTTCTTTTTT [GTGCAC_site9723]”, the “gcPBM binding intensity (ln)” value turned out to be 9.82.
On to “ACAAACATTAGGGAAGCATGCAATATTTTTTTACAT [TGCATGCA_site372]”, for which the “gcPBM binding intensity (ln)” value amounted to 9.65.
The figure for “TGTAGATTTTGTAACACACACATATATATACATATA [CACACA_site2405]” is 10.
Then “ATTCTTATTTAAAGGTGTACTCTTAAACAGATTTTA [XGTACX_site3526]”, with 9.54; and “GTACACATATAGTAATAATTTTATTATATTTTTTTG [CACACA_negctrl_site843]”, with 9.6; and “ATTTTAATATAAAATACACACTACTATTATAAATAT [CACACA_site4917]”, with 9.64.
With “AGATTTAAATTTATATGTACATAATATGGGCGTATA [XGTACX_site6631]”, the “gcPBM binding intensity (ln)” value came to 9.64.
As to GGTCTTCTTAATATACTGCACTGTATACGTATATAA, the “gcPBM binding intensity (ln)” value stood at 9.8.
The figure for “TTCATAAAATGATATTGTACAAATAAATAATAGTAT [XGTACX_site819]” is 9.68.
Then “GCTTATATAAAAAGTTGTACAACCGAATCTTTTACA [XGTACX_site2119]”, with 9.65; and “TAATATCATTTATGTAGTACTATAACAAGAACTATA [XGTACX_site3618]”, with 9.27; and “AAAAAAAAAAAGCACACACACATATGAGTATATATA [CACACA_site4683]”, with 10.3.
Then “AATGTAAAAGTAAACACACACATATATAAATACATA [CACACA_site5386]”, with 10.2.
Consider “TACACAAGCAGACACACACACATATATATATATATA [CACACA_site1270]”, for which the “gcPBM binding intensity (ln)” value is 10.2.
As to “GTACATAGATTGTACATACACACCTATATAAATATC [CACACA_site3225]”, the “gcPBM binding intensity (ln)” value stood at 9.88.
The figure for “AATATATGGTTCCATGATATTAAATTCAATTTAATG [CACACA_negctrl_site605]” is 9.47.
The figure for “TTTTTTTTGTTCTATACAATTATAAAAATAAAATAT [XGTACX_negctrl_site53]” is 9.06.
